Results taken from the RNAGym collection of RNA variant scans (doi:10.7554/elife.90254).
The source gives no read counts; variants with many changes may rest on few reads.

B1: LINE1-mini (parent)
chain: GGCAGAGCUCAACACAGCGUGGCAAAGUGGCUGUGGCUAGACUGCC

Variants of: B1
Test: self-cleavage, relative activity (ratio to wild type); higher = more cleavage; in vitro, sequencing; the parent is a self-cleaving ribozyme

| Variant | self-cleavage |
| --- | --- |
| C8G G19A G44C | 0.02 |
| C8G A16C G21U G30U U34G | 0 |
| C8G G19C C31G | 0.22 |
| C8G G27C G44A | 0.02 |
| C8G C18U U32C | 0.02 |
| C8G A12C G22A G27A G33U | 0.01 |
| C8G G21A G30C | 0.01 |
| C8G C23A G33U | 0.02 |
| C8G A12U G21U G22U G29C | 0.03 |
| C8G A14G U20C A41U C42U | 0.09 |
| C8G C31U A39U | 0.07 |
| C8G A11U A16G C46U | 0.01 |
| C8G G17A G33A | 0.03 |
| C8G G29U G30U G33A | 0.13 |
| C8G C15A C23U G30C C46A | 0.01 |
| C8G C31U C37U G40U | 0.03 |
| C8G C15A A24C G35A | 0.04 |
| C8G A41G C45A | 0.03 |
| C8G C10A A26C C31A U38A | 0.01 |
| C8G C13G G17A C18U C23U C45U | 0.05 |
| C8G G19U G40C G44U C46G | 0 |
| C8G G27A G29C | 0.07 |
| C8G G27A G29U | 0.15 |
| C8G G22C U43G C45A | 0.13 |

| Variant | self-cleavage |
| --- | --- |
| C8G U9A G19A G21A C23U | 0.05 |
| C8G A11U A26G | 0 |
| C8A U34G G35C G44U | 0.06 |
| C8G A14C G19A C31U U34G G36A C46G | 0.01 |
| C8G G33A G36U C42U | 0.03 |
| C8G A26G C46A | 0.03 |
| C8G C18A U20A G35C G44U | 0.03 |
| C8G C18G G30C | 0.03 |
| C8G A25G G30C U38A A39U | 0.03 |
| C8G G33C G40U | 0.02 |
| C8G G22C G27C | 0.04 |
| C8G G21A A24C A25U A26G C37A | 0.13 |
| C8G A25C G35U G36A C46U | 0.06 |
| C8G G33U G44U | 0.07 |
| C8G G35U C42U | 0.03 |
| C8G G17U C23A A41C | 0.02 |
| C8G A16G G27A G35A C45G | 0.04 |
| C8G C10U U20G | 0.04 |
| C8G C10U U20C | 0.07 |
| C8G G40C C42A G44C | 0.03 |
| C8G C13U U20G C45G | 0.04 |
| C8G G19U U38C | 0.05 |
| C8G A24U A26G | 0.01 |
| C8G A24C G30U | 0.02 |

| Variant | self-cleavage |
| --- | --- |
| C8A U20G G29A G44U | 0.36 |
| C8G C15G U34G C46A | 0.08 |
| C8G C13U G36C | 0.23 |
| C8G C31A G36A G40A C42G | 0 |
| C8G G22C G30A U34C | 0.13 |
| C8G C18U U28A U43C | 0 |
| C8A U20A A24G C37A | 0.02 |
| C8G G19U G21C C31G U38A | 0.02 |
| C8G C23U C46U | 0.08 |
| C8G A12U A14U G21C G35U C42A C45G | 0.03 |
| C8G G33A C46A | 0.01 |
| C8G C31A C45A | 0.07 |
| C8G C18G G21A G35A C42U | 0.04 |
| C8G A16U G17U A39G | 0.02 |
| C8G C18G C37U | 0.17 |
| C8G A25U U28C U34G U43A | 0.03 |
| C8G C13A U32G | 0.03 |
| C8G G21U A26C A41C | 0.08 |
| C8G U9G A11U C23G | 0.01 |
| C8G A12U C31G | 0.03 |
| C8G G27A C37A | 0.02 |
| C8G G29U C42G | 0.11 |
| C8G C13G G22C | 0.02 |
| C8G A16C G33U G35A G36U U43C | 0 |

| Variant | self-cleavage |
| --- | --- |
| C8G A11C C31A G40U | 0 |
| C8G A14C G29U | 0.02 |
| C8G U9C C10U A11C A12U C13A A14C | 0.05 |
| C8G C15A C45G | 0.08 |
| C8G G21U U43A | 0.14 |
| C8G A14U A39U | 0.1 |
| C8G C10A C23G | 0 |
| C8G A14U G22U A24C G30C G33A | 0 |
| C8A U20C G30U | 0.08 |
| C8G G44C C46U | 0.01 |
| C8G C18U C23G | 0.09 |
| C8G A12G G21C G35U | 0.08 |
| C8G G30A C46U | 0.04 |
| C8G C15A G29U | 0.05 |
| C8G C23A A25C C37A G44C | 0.01 |
| C8G A12G U28A C37U | 0.03 |
| C8G C31U G40C | 0.04 |
| C8G A12U C42U | 0.02 |
| C8G A14U U20C A26C U34G | 0 |
| C8G G30C G35C | 0.08 |
| C8G A24C C42G G44C | 0.04 |
| C8G C10G C23U A25C G40U | 0.01 |
| C8G A14G G21C A24G G44U | 0.04 |
| C8A U20G C45U | 0.16 |

| Variant | self-cleavage |
| --- | --- |
| C8G G17A G30U A41C | 0.05 |
| C8G A11C G19U G21U C37G C45G | 0 |
| C8G G30U G36U U38G G44A | 0.01 |
| C8G U9C C10A C15G C18A | 0.01 |
| C8G A16C G21A G27A | 0.06 |
| C8A U32C U34C A39U C45A | 0.29 |
| C8G A11G C13U A26U | 0.01 |
| C8G G21U C31A | 0.06 |
| C8G G21U U28G | 0.05 |
| C8G C10U G19U | 0.03 |
| C8G G21C G33C G36A | 0.02 |
| C8G C15G G27A G33C | 0.02 |
| C8G C10A U34A C37A | 0.02 |
| C8G G21U U34G | 0.02 |
| C8G C15A C37U | 0.08 |
| C8G G19A U20G G35C A41C | 0.1 |
| C8A U38A A41U | 0.25 |
| C8G A24G G27A C42A | 0.03 |
| C8A U20G G21A U38C G40C | 0.16 |
| C8G C23A C31A G40U | 0.01 |
| C8G G36A U43A G44A C46G | 0.01 |
| C8G G21A A26U G29U | 0.15 |
| C8G G29U C46U | 0.08 |
| C8G C13A G22A G40A | 0.03 |

| Variant | self-cleavage |
| --- | --- |
| C8G C23G A39C | 0.05 |
| C8G A14U A24G C37G U43A | 0.01 |
| C8G G17C U20C G40C | 0.02 |
| C8A U32C U34G G36C | 0.08 |
| C8G C10U G30U | 0.05 |
| C8A U34C C42U C46G | 0.09 |
| C8G G17U G30U U32G | 0.02 |
| C8G A39U C46U | 0.04 |
| C8G G22C C23G A25G C45U | 0.06 |
| C8G C13A C15A C18A U34G C46G | 0.06 |
| C8G C10G U34C A39U | 0.02 |
| C8G A16C A39C | 0 |
| C8G G27C G35U G44U | 0.02 |
| C8G C23U U28A G30A | 0.13 |
| C8G G21A U38G | 0.04 |
| C8G C31A A39C G40U | 0.03 |
| C8G A12U C13A G27C | 0.06 |
| C8G C10A G17C G21U C45G C46A | 0.01 |
| C8A U28G G35U | 0.24 |
| C8G C18A C23U G36A | 0 |
| C8G C10G A12C | 0 |
| C8G A26U U43C | 0.02 |
| C8G C23A G35C C45U | 0.02 |
| C8G C15U A25G C37U G44U | 0.08 |

| Variant | self-cleavage |
| --- | --- |
| C8G C37G G40A C42G G44U | 0.09 |
| C8G C18A G19U U32C | 0.02 |
| C8G C15A U20C U28A | 0.04 |
| C8G A12C G29U C45G | 0.01 |
| C8G U9A C10A C31A | 0.02 |
| C8G C18G G19U G30C U32C C37A A39G G40U A41U | 0 |
| C8A U20A G30U G33U G35C U38C | 0.07 |
| C8G C31G G40C | 0.01 |
| C8A U20C U32C G35A | 0.09 |
| C8G G27C C42G | 0.04 |
| C8G A12G C37G | 0.04 |
| C8G C31A G36C | 0.03 |
| C8G C31A G36A | 0.02 |
| C8G G30U A41C | 0.04 |
| C8G G22A G40U | 0.05 |
| C8G G35U U38A | 0.07 |
| C8G C13A G17U G27U G29U C31A G33U G40A | 0.01 |
| C8A U20C G30U G35U | 0.08 |
| C8G C13G A14G | 0.02 |
| C8G C10U G21A G36A | 2.33 |
| C8G C15A U28G A41U C42U | 0.15 |
| C8G G19U G21A | 0.04 |
| C8A U34C U38C | 0.19 |
